The record followed here is PubChem BioAssay AID1963576 (National Center for Advancing Translational Sciences (NCATS), 2024).

About 60 (0.1%) of roughly 46,000 compounds were called active. Another 3% or so got no clear call; they are omitted. Calls follow the shape of the dose curve; as a rule, active = well fitted inhibition curve with a large enough effect; inconclusive = small, poorly fitted or top-dose-only effect; inactive = no such curve, though single readings can be large or run the other way. Some of the results follow.

A short description of the assay: Primary qHTS assay for Inhibitors of ovarian cancer metastasis using an organotypic tumor microenvironment (TME) model. Also: nearly all actives have a fitted effect of over 65% in size.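 As to activity change, negative = inhibition: plate controls were DMSO wells for no effect and tomatine positive control wells for full effect.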 Particulars: SKOV3ip1-GFP adhesion/invasion on 3D omental model, fluorescence; series mostly up to 45.8 µM; activity change, negative = inhibition: at the top concentration. In outline:
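Primary human omental fibroblast/mesothelial 3D culture pre-formed 48 h. SKOV3ip1-GFP cells added with compounds (0.36-46 umol/L), incubated 2 h RT/16 h 37 C, fixed; GFP cells quantified at 488/509 nm.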
On to `O=C(NCCc1ccc(Cl)cc1)C(=O)NCC(c1cccs1)S(=O)(=O)c1ccccc1` (configuration not stated), for which the “activity change, negative = inhibition” value was inactive: 1.29%.

For `CC(C)c1ccc(Nc2c(-c3ccc(N(C)C)cc3)nc3cnccn23)cc1`, the result was inactive.

With `Cc1ccc(Nc2c(-c3ccc(C)cc3)nc3c(C)cccn23)cc1`, the “activity change, negative = inhibition” value is inactive: 14.4%.

As to `COc1ccc(-c2noc(CSc3nc4ccccc4[nH]3)n2)cc1`, the “activity change, negative = inhibition” value is inactive: -16.3%.

`Cc1cc2n(n1)CCC(=O)N2Cc1ccc(C(=O)Nc2cccc(C(F)(F)F)c2)cc1`: the “activity change, negative = inhibition” value is inactive: 4.46%.

Take `COC(=O)c1cc2sc(C)cc2n1Cc1nc(-c2ccc(C)cc2)oc1C`: the “activity change, negative = inhibition” value was inactive: -7.33%.

With `CC(=O)N1c2ccc(S(=O)(=O)NCCC(=O)N(C)Cc3ccccc3)cc2CC1C` (configuration not stated), the “activity change, negative = inhibition” value was inactive: -6.61%.

As for `Cc1ccc(C)c(NC(=O)CSc2nc(=O)n(Cc3ccncc3)c3c2CCC3)c1`, the compound was called inactive.

With `CNC(=O)c1c(NC(=O)Cc2coc3ccc(OC)cc23)sc2c1CCCC2`, the “activity change, negative = inhibition” value is inactive: -0.657%.

As to `O=C(Cc1ccc(Cl)cc1)Nc1ccc2oc(-c3ccccc3F)nc2c1`, the “activity change, negative = inhibition” value was inactive: -4.79%.

Take `COc1cccc(CN(C(=O)c2oc3ccccc3c2C)C2CCS(=O)(=O)C2)c1` (configuration not stated): the “activity change, negative = inhibition” value was inactive: 14%.

As for `CCc1cccc(C)c1NC(=O)CCS(=O)(=O)c1ccc2c(c1)oc(=O)n2C`, the “activity change, negative = inhibition” value is inactive: 1.91%.

Turning to `COc1cc(C)ccc1OCCSc1nc2ccc(NC(C)=O)cc2s1`, the “activity change, negative = inhibition” value is inactive: -6.93%.

Turning to `CCCCCn1c(=O)c2c(nc3n2CCN3c2ccc(Br)cc2)n(C)c1=O`, the call was inactive.

As to `CCc1ccc(NC(=O)CSc2nc3c([nH]c4ccccc43)c(=O)n2-c2cccc(OC)c2)cc1`, the “activity change, negative = inhibition” value was inactive: -0.478%.

Consider `CCOC(=O)c1ccc(NC(=O)Cn2cnc3sc(C(=O)OCC)c(C)c3c2=O)cc1`, for which the “activity change, negative = inhibition” value was inactive: 6.33%.

As for `CCOc1ccc(NC(=O)CSc2nc(=O)[nH]c3c2CCC3)cc1`, the compound was called inactive.

As for `CCC(Sc1nnc2c3ccccc3n(C)c2n1)C(=O)Nc1nnc(C(C)C)s1` (configuration not stated), the “activity change, negative = inhibition” value was inactive: -5.64%.

Regarding `Cc1cc(F)ccc1NC(=O)CCSc1nc(-c2ccco2)cc(C(F)(F)F)n1`, the “activity change, negative = inhibition” value is inactive: 5.89%.

Regarding `COC(=O)COc1ccc(Oc2nc(NC(C)(C)C)nc(N(C)C)n2)nn1`, the “activity change, negative = inhibition” value was inactive: -1.03%.

`Cc1ccc(C)c(CNC(=O)c2sc3ncnc(N(C)C4CCCCC4)c3c2C)c1`: the outcome was inactive.

For the compound `COc1ccc(-c2cc3ccc(O)c(CN4CCCC4)c3oc2=O)cc1OC`, the compound was classed as inactive.

In the case of `Cc1cccc(C(=O)N2CCc3cc(CNS(=O)(=O)c4cccs4)ccc32)c1`, the “activity change, negative = inhibition” value is inactive: -7.51%.

Regarding `Cc1ccc2nc(N(Cc3cccnc3)C(=O)CCOc3ccccc3)sc2c1`, the “activity change, negative = inhibition” value was inactive: -35.7%.

With `CCc1cc2c(cc3c(=O)n(CC(=O)NCCOC)nc(CC)n32)s1`, the “activity change, negative = inhibition” value was inactive: -2.6%.

As for `CC(=O)Nc1ccc(Nc2ncnc3sc4c(c23)CCCC4)cc1`, the “activity change, negative = inhibition” value is inactive: -3.11%.

For `CCn1c(CC2C(=O)N(C)c3ccc(Br)cc32)nc2ccccc2c1=O` (configuration not stated), the call was inactive.

`COc1ccc(C(=O)NCC(c2ccc3c(c2)OCO3)N2CCOCC2)cc1OC` (configuration not stated): the “activity change, negative = inhibition” value is inactive: 3.03%.

In the case of `CCOC(=O)c1c(C)c(-c2ccccc2)n(CC(=O)Nc2cccc(C)c2C)c1C`, the outcome was inactive.

Regarding `Cc1ccc(C(=O)NC2(C(F)(F)F)N=C(c3ccccc3)N(C3CCCCC3)C2=O)cc1` (configuration not stated), the “activity change, negative = inhibition” value is inactive: 8.13%.

On to `CC1CCN(C(=O)C(C)Sc2nc(-c3ccccc3)cc(C(F)(F)F)n2)CC1` (configuration not stated), for which the outcome was inactive.

On to `COc1ccc(OC)c(NC(=O)c2c(C)oc3ncnc(N4CCOCC4)c23)c1`, for which the outcome was inactive.

On to `O=C(Cn1c(=O)n2nc(-c3cccc(F)c3)nc2c2ccccc21)N1CCN(c2ccccc2F)CC1`, for which the “activity change, negative = inhibition” value was inactive: -0.106%.

Turning to `O=C(c1cccc(Cl)c1)N1CCC(c2nc3ccccc3o2)CC1`, the “activity change, negative = inhibition” value was inactive: -12.1%.

As for `CC1CCN(c2cc(N3CCN(C)CC3)ccc2NC(=O)c2cc(C#N)c[nH]2)CC1`, the “activity change, negative = inhibition” value is inactive: 23.3%.

Consider `COc1cccc(C(=O)Nc2ccc(C(=O)OCc3cc(=O)n4nc(C5CC5)sc4n3)cc2)c1`, for which the “activity change, negative = inhibition” value is inactive: 1.51%.

Regarding `COc1cc(OC)c(NC(=O)N2CC=C(c3c[nH]c4ccccc34)CC2)cc1Cl`, the “activity change, negative = inhibition” value was inactive: 3.44%.

In the case of `Cn1c(=O)cc(SCC(=O)N2CCN(c3ccccc3)CC2)c2ccccc21`, the call was inactive.

Take `COc1ccccc1OCc1nc(-c2cccc(C)c2)no1`: the “activity change, negative = inhibition” value was inactive: 7.11%.

As to `O=C(c1ccco1)N1CCN(C(=O)c2cnn(-c3cccc(F)c3)c2C2CCNCC2)CC1`, the “activity change, negative = inhibition” value is inactive: 43.4%.

With `Cc1cccc(-c2nc(SCC(=O)N(C)c3ccccc3)c3c(=O)n(C)c(=O)n(C)c3n2)c1`, the “activity change, negative = inhibition” value is inactive: 13.2%.

`CCCN1C(=O)C2(c3ccccc31)c1c(oc3ccccc3c1=O)C(=O)N2CCCOC(C)C` (configuration not stated): the outcome was inactive.

For the compound `O=C(O)c1ccc(C2Nc3ccccc3-c3nnc(SCc4ccc(Cl)cc4)nc3O2)cc1` (configuration not stated), the “activity change, negative = inhibition” value was inactive: -9.12%.

Consider `Cc1ccc(-c2cc(C(F)(F)F)n3ncc(-c4ccc(Cl)cc4)c3n2)cc1`, for which the “activity change, negative = inhibition” value is inactive: -6.23%.

Consider `CCOC(=O)C1CCN(C(=O)c2ccc3c(c2)N=C(CC)c2cc(C)ccc2S3)CC1`, for which the “activity change, negative = inhibition” value is inactive: 6.19%.

With `CN(C)CCN1C(=O)c2cccc3cc(N)cc(c23)C1=O`, the “activity change, negative = inhibition” value is inactive: 11%.

For `CCCCn1c(=O)nc2n(-c3ccc(F)cc3)c3ccccc3cc-2c1=O`, the “activity change, negative = inhibition” value was inactive: 4.36%.

As for `CC(Sc1nc2c([nH]c3ccccc32)c(=O)n1-c1ccccc1)c1ccccc1` (configuration not stated), the “activity change, negative = inhibition” value was inactive: -28.1%.

In the case of `CCC(=O)N1CCc2cc(S(=O)(=O)CCC(=O)NCc3ccc(OC)cc3)ccc21`, the “activity change, negative = inhibition” value is inactive: 8.12%.

For the compound `O=C(CSc1nc2c(cnn2-c2ccc(F)cc2)c(=O)[nH]1)Nc1ccccc1C(F)(F)F`, the “activity change, negative = inhibition” value was inactive: -4.08%.

Consider `COc1ccccc1N1CCN(C(=O)c2cc3c(=O)oc4ccccc4c3s2)CC1`, for which the compound was called inactive.

Regarding `COc1cccc(CNC(=O)c2cc3ccc4cccnc4c3[nH]2)c1`, the “activity change, negative = inhibition” value is inactive: -2.76%.

With `COc1ccccc1NC(=O)C1=C(C)Nc2nc(SCc3cccc(F)c3)nn2C1c1ccc(C(=O)O)cc1` (configuration not stated), the call was inactive.

As to `CCOc1ccc(N2CC(c3nc4ccccc4n3CCOc3ccccc3)CC2=O)cc1` (configuration not stated), the “activity change, negative = inhibition” value is inactive: 12.1%.

On to `COc1ccc(C2C=C(c3ccccc3)Nc3nc(NC(=O)/C=C/c4ccc(Cl)cc4)nn32)cc1` (configuration not stated), for which the “activity change, negative = inhibition” value is inactive: -20%.

`Cc1nc2ncnn2c(C)c1CCC(=O)NCc1cccc(Cl)c1`: the “activity change, negative = inhibition” value is inactive: 6.32%.

Turning to `Cc1ccc(NC(=O)c2cc(S(=O)(=O)N3CCCCC3)c[nH]2)cc1F`, the result was inactive.

Consider `CCCCc1nn2c(=O)cc(COC(=O)c3ccccc3NC(=O)c3cccc(C)c3)nc2s1`, for which the “activity change, negative = inhibition” value is inactive: 0.0399%.

Take `O=c1cc(CN2CCOCC2)occ1OCCCCCSc1ccnc2cc(C(F)(F)F)ccc12`: the “activity change, negative = inhibition” value was inactive: -0.824%.

For the compound `Cc1cccc(NC(=O)c2c(C)oc3ncnc(N4CCCCC4)c23)c1C`, the “activity change, negative = inhibition” value was inactive: 8.07%.

In the case of `CCOC(=O)N1CCN(C(=O)Cn2ncc3c4ccccc4n(Cc4ccc(F)cc4)c3c2=O)CC1`, the “activity change, negative = inhibition” value was inactive: -15.9%.

As for `O=C(COc1ccc(F)cc1)Nc1ccc(Cl)c(-c2nc3ccccc3[nH]2)c1`, the “activity change, negative = inhibition” value is inactive: -1.17%.
